{"source": "PubChem BioAssay (NCATS)", "key": {"[1]": {"test": "Primary qHTS to identify inhibitors of SARS-CoV-2 cell entry (AID 1645846; calls by dose curve; also: nearly all actives have a fitted effect of over 45% in size; also: potency is read from the fitted curve at half-maximal effect)", "in_short": "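Using luciferase-reporting pseudoviruses carrying Wuhan-Hu-1 spike, the screen tracks entry into stably ACE2-expressing cells over 48 hr. Activity is expressed relative to spike particles versus particles lacking any fusion protein.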"}, "[2]": {"test": "Primary qHTS for inhibitors of nuclear receptor binding SET domain protein 2 (NSD2) in an isogenic RCH-ACV NSD2 p.E1099K mutant (9B) (AID 1645876); also: nearly all actives have a fitted effect of over 70% in size; also: potency is read from the fitted curve at half-maximal effect"}, "[3]": {"biological_target": "Phospholipid hydroperoxide glutathione peroxidase GPX4 (Homo sapiens) (UniProt P36969)", "sequence (P36969 whole entry, looked up)": "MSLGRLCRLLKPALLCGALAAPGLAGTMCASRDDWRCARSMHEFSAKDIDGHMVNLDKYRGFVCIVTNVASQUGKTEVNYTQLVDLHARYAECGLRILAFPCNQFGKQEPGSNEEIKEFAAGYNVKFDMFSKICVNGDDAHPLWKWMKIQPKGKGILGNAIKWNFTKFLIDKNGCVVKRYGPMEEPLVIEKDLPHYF", "test": "Primary qHTS Assay for Inhibitors of Recombinant Selenoprotein Glutathione Peroxidase 4 (GPX4) (AID 1845192); also: nearly all actives have a fitted effect of over 65% in size", "in_short": "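GR-coupled assay: recombinant GPX4 preincubated 30 min with compound at room temperature; final 200 nM GPX4, 1 mM GSH, 0.5 mM cumene hydroperoxide, 0.5 mM NADPH, 100 nM GR, 0.01% BSA, pH 7.5 Tris. NADPH fluorescence (340/450 nm) read at 0 and 15 min.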"}, "[4]": {"test": "Primary qHTS for inhibitors of nuclear receptor binding SET domain protein 2 (NSD2) in an RCH-ACV wild type WT cells (2C) (AID 1645877); also: potency is read from the fitted curve at half-maximal effect; nearly all actives have a fitted effect of over 70% in size"}, "[5]": {"biological_target": "Glutathione peroxidase 1 (Homo sapiens) (UniProt P07203)", "sequence (P07203 whole entry, looked up)": "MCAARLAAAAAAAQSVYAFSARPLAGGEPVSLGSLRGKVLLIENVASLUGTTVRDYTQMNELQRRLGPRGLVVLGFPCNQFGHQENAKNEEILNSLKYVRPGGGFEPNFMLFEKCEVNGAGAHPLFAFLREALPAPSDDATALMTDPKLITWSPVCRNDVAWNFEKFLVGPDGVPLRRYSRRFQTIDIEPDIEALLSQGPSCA", "test": "Primary qHTS Assay for Inhibitors of Recombinant Selenoprotein Glutathione Peroxidase 1 (GPX1) (AID 1845191); also: nearly all actives have a fitted effect of over 65% in size; also: potency is read from the fitted curve at half-maximal effect", "in_short": "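GR-coupled assay: compounds preincubated 30 min at room temperature with GPX1, then reaction started with CHP; final 10 nM GPX1, 1 mM GSH, 0.5 mM CHP, 0.5 mM NADPH, 100 nM GR, 0.01% BSA, pH 7.5 Tris buffer. NADPH fluorescence (340/450 nm) read at 0 and 15 min.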"}, "[6]": {"biological_target": "Rap guanine nucleotide exchange factor 3 (Homo sapiens) (UniProt O95398)", "sequence (O95398 whole entry, looked up)": "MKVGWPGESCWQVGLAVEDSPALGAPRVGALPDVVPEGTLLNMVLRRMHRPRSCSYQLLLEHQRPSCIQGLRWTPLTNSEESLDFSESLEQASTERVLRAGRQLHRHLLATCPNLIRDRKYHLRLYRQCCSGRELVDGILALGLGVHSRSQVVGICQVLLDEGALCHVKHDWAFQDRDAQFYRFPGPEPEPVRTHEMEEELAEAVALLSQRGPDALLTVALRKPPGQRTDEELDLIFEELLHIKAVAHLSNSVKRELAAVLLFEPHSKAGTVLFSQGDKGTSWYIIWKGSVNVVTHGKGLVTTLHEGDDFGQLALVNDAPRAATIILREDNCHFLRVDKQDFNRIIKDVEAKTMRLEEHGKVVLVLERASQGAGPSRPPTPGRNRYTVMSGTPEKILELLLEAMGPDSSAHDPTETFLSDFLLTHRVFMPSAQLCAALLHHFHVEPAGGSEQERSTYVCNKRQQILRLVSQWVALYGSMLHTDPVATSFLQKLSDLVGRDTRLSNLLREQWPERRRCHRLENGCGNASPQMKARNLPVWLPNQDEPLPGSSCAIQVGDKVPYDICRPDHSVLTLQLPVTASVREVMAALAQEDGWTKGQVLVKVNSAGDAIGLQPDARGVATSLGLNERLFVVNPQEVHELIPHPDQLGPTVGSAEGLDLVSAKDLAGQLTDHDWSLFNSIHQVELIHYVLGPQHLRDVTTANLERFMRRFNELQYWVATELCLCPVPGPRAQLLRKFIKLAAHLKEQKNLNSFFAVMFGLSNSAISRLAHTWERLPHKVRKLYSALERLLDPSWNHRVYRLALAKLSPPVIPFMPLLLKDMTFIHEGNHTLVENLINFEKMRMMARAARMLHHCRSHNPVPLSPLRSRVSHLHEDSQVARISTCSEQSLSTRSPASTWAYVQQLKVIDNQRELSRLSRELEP", "test": "Confirmatory qHTS for antagonist of cAMP-regulated guanine nucleotide exchange factor 3 (EPAC1) (AID 1645880); also: nearly all actives have a fitted effect of over 55% in size; also: potency is read from the fitted curve at half-maximal effect", "in_short": "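Nucleotide exchange uses 100 nM EPAC1, 250 nM RAP1B-BODIPY-GDP and 50 uM GDP, with compounds in a concentration-titration series. After 5 min at room temperature, fluorescence (480 nm ex/540 nm em) is read every 5 min for 30 min. Data are normalized to control ATA and DMSO.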"}, "[7]": {"biological_target": "Rap guanine nucleotide exchange factor 4 (Homo sapiens) (UniProt Q8WZA2)", "sequence (Q8WZA2 whole entry, looked up)": "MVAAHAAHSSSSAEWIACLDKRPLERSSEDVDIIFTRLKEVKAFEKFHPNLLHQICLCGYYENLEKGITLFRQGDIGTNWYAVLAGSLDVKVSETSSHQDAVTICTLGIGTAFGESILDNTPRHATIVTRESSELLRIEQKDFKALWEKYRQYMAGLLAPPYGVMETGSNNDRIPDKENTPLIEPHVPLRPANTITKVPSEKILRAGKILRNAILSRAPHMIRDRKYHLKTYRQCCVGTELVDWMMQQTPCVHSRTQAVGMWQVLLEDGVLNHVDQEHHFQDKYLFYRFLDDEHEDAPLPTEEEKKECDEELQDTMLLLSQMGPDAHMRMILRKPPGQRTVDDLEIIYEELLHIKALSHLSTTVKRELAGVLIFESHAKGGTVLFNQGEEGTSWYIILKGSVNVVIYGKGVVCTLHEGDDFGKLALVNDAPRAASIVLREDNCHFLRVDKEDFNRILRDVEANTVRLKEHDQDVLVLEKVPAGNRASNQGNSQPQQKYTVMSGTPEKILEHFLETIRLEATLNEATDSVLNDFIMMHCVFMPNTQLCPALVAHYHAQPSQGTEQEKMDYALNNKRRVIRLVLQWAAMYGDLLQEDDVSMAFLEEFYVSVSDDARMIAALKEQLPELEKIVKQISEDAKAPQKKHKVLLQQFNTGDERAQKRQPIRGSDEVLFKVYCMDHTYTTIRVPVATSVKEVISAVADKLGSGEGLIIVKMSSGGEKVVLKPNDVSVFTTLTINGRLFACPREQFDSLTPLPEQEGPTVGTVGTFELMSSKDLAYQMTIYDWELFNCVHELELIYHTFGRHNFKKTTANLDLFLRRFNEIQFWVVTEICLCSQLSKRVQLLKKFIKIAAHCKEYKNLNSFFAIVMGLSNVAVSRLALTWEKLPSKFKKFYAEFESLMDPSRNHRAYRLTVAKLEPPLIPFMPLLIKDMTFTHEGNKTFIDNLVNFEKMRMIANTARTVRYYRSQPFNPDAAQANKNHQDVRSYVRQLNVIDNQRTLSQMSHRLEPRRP", "test": "Confirmatory qHTS for antagonist of cAMP-regulated guanine nucleotide exchange factor 4 (EPAC2) (AID 1645885); also: potency is read from the fitted curve at half-maximal effect; nearly all actives have a fitted effect of over 25% in size"}, "[8]": {"test": "Primary fluorescence-based thiol-reactive (MSTI) qHTS assay for identification of artifact compounds. (AID 1845221);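 also: potency is read from the fitted curve at half-maximal effect; thiol-reactive compounds lower the probe fluorescence signal; nearly all actives have a fitted effect of over 65% in size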", "in_short": "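One-hour, room-temperature, dark incubation of compound with 4 uM MSTI in PBS (pH 7.4, 2% DMSO) precedes a fluorescence read at 525 nm excitation, 598 nm emission; Hill-equation fitting yields concentration-response values.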"}, "[9]": {"test": "NCATS anti-infectives library activity on HEK293 viability as a counter-qHTS vs the C. elegans viability qHTS (AID 1745854); also: potency is read from the fitted curve at half-maximal effect", "in_short": "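HEK293 cells (1,500/well) exposed 24 hr at 37C to 1:5 titrations, up to 41.7 uM final; counter-screen to a C. elegans viability qHTS. Viability by CellTiter-Glo luminescence after 10 min at room temperature; digitonin as control.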"}, "[10]": {"test": "NCATS anti-infectives library activity on the primary C. elegans qHTS viability assay (AID 1745855; calls by dose curve; also: potency is read from the fitted curve at half-maximal effect)", "in_short": "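Viability read-out is GFP fluorescence of PE254-GFP-FLuc C. elegans, measured by laser cytometry (488 nm) at day 0, 3 and 7. Ten L1 worms per well were incubated 7 days at 21 °C with compounds and bacterial capsules in S medium.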"}, "[11]": {"biological_target": "Rap guanine nucleotide exchange factor 3 (Homo sapiens) (UniProt O95398)", "test": "Counterscreen qHTS for agonist of cAMP-regulated guanine nucleotide exchange factor 3 (EPAC1) (AID 1645889); also: % of control where 0% means no effect; nearly all actives have a fitted effect of over 40% in size", "conditions": "EPAC1 Rap1B-BODIPY-GDP exchange, fluorescence; activation: at 30.8 µM (top of the series)", "in_short": "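Rap1B–BODIPY-GDP (250 nM) with 50 uM GDP; compounds pin-transferred to 9.74 nM–152 uM final (activator) or from 7.32 nM upwards (inhibitor). Fluorescence Ex/Em 480/540 nm read at 5 and 30 min, then after adding cAMP or buffer, at room temperature.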"}}, "note": "Several values for one entry are separate records, joined by “and”; a condition that tells them apart may be missing. Equal values may be shown once. The inconclusive results got no clear call from the source; some entries with a clear call stand among them for comparison. For some of these results: Potencies of inconclusive entries are doubtful fits and often do not repeat. Activity calls are given as the source filed them. Unless noted, calls follow the shape of the dose curve; as a rule, active = well fitted curve in the direction sought with a large enough effect; inconclusive = small, poorly fitted or top-dose-only effect, or another doubt; inactive = no such curve, though single readings can be large; an effect the other way counts as inactive or inconclusive. Tags tell the direction and shape of the fitted curve.", "data": [{"smiles": "CC(NC(C)(C)C)C(=O)c1cccc(Cl)c1", "note": "(centres undefined)", "values": [{"measurement": "Potency", "setting": "[1]", "result": "inactive"}, {"measurement": "Potency", "setting": "[2]", "result": "inactive"}, {"measurement": "Potency", "setting": "[3]", "result": "inactive"}]}, {"smiles": "O=c1c(C2CC(c3ccc(-c4ccc(Br)cc4)cc3)Cc3ccccc32)c(O)sc2ccccc12", "note": "(centres undefined)", "values": [{"measurement": "Potency", "setting": "[1]", "result": "active: 14.1 µM"}, {"measurement": "Potency", "setting": "[2]", "result": "inconclusive: 9.44 µM [inhibitor, partial curve]"}, {"measurement": "Potency", "setting": "[4]", "result": "inconclusive: 18.8 µM [inhibitor, partial curve]"}, {"measurement": "Potency", "setting": "[5]", "result": "active: 22.7 µM"}]}, {"smiles": "COC(=O)c1cncn1C(C)c1ccccc1", "note": "(centres undefined)", "values": [{"measurement": "Potency", "setting": "[1]", "result": "inactive"}, {"measurement": "Potency", "setting": "[2]", "result": "inactive"}, {"measurement": "Potency", "setting": "[5]", "result": "inactive"}]}, {"smiles": "CCN(CC)Cc1nccn1-c1ccc([N+](=O)[O-])cc1C(=O)c1ccccc1Cl", "values": [{"measurement": "Potency", "setting": "[1]", "result": "inconclusive: 31.6 µM [inhibitor, single point]"}, {"measurement": "Potency", "setting": "[2]", "result": "inconclusive: 23.7 µM [inhibitor, partial curve, poor fit]"}, {"measurement": "Potency", "setting": "[4]", "result": "inconclusive: 21.1 µM [inhibitor, partial curve, poor fit]"}]}, {"smiles": "CCNC(=O)C[C@@H]1N=C(c2ccc(Cl)cc2)c2cc(OC)ccc2-n2c(C)nnc21", "values": [{"measurement": "Potency", "setting": "[1]", "result": "inconclusive: 15.8 µM [inhibitor, partial curve]"}, {"measurement": "Potency", "setting": "[2]", "result": "active: 459 nM and active: 590 nM"}, {"measurement": "Potency", "setting": "[4]", "result": "active: 459 nM and active: 833 nM"}]}, {"smiles": "Clc1ccc(CO/N=C(\\Cn2ccnc2)c2ccc(Cl)cc2Cl)c(Cl)c1", "values": [{"measurement": "Potency", "setting": "[1]", "result": "inconclusive: 35.5 µM [inhibitor, single point]"}, {"measurement": "Potency", "setting": "[2]", "result": "inconclusive: 29.9 µM [inhibitor, single point]"}, {"measurement": "Potency", "setting": "[4]", "result": "inconclusive: 18.8 µM [inhibitor, single point]"}, {"measurement": "Potency", "setting": "[6]", "result": "inactive"}, {"measurement": "Potency", "setting": "[7]", "result": "inconclusive: 49.4 µM [inhibitor, partial curve, poor fit]"}]}, {"smiles": "CC(C)N(CCC(C(N)=O)(c1ccccc1)c1ccccn1)C(C)C", "note": "(centres undefined)", "values": [{"measurement": "Potency", "setting": "[1]", "result": "inconclusive: 10 µM [inhibitor, partial curve, poor fit]"}, {"measurement": "Potency", "setting": "[2]", "result": "inactive"}, {"measurement": "Potency", "setting": "[5]", "result": "inconclusive: 11.4 µM [inhibitor, partial curve, poor fit]"}, {"measurement": "Potency", "setting": "[8]", "result": "inconclusive: 3.36 µM [inhibitor, partial curve, poor fit]"}]}, {"smiles": "CC(Cc1ccccc1)NCCCCl", "note": "(centres undefined)", "values": [{"measurement": "Potency", "setting": "[1]", "result": "inconclusive: 28.2 µM [inhibitor, single point]"}, {"measurement": "Potency", "setting": "[2]", "result": "inconclusive: 23.7 µM [inhibitor, single point]"}, {"measurement": "Potency", "setting": "[4]", "result": "inconclusive: 33.5 µM [inhibitor, partial curve, poor fit]"}]}, {"smiles": "CCc1cc2c(s1)-n1c(C)nnc1CN=C2c1ccccc1Cl", "values": [{"measurement": "Potency", "setting": "[1]", "result": "inconclusive: 39.8 µM [inhibitor, single point]"}, {"measurement": "Potency", "setting": "[2]", "result": "inconclusive: 18.8 µM [inhibitor, single point]"}, {"measurement": "Potency", "setting": "[4]", "result": "inconclusive: 29.9 µM [inhibitor, single point]"}]}, {"smiles": "CN1CCC2=C(C1)c1ccccc1Cc1ccccc12", "values": [{"measurement": "Potency", "setting": "[1]", "result": "inconclusive: 39.8 µM [inhibitor, single point]"}, {"measurement": "Potency", "setting": "[2]", "result": "inconclusive: 20.5 µM [inhibitor, single point]"}, {"measurement": "Potency", "setting": "[4]", "result": "inconclusive: 29 µM [inhibitor, single point]"}]}, {"smiles": "C[C@@H]1CN(Cc2ccc(F)cc2)CCN1C(=O)COc1ccc(Cl)cc1NC(N)=O", "values": [{"measurement": "Potency", "setting": "[1]", "result": "active: 2.51 µM"}, {"measurement": "Potency", "setting": "[2]", "result": "inconclusive: 1.45 µM [inhibitor, full curve]"}, {"measurement": "Potency", "setting": "[4]", "result": "inconclusive: 2.3 µM [inhibitor, full curve]"}]}, {"smiles": "CC[C@H]1/C=C\\C=C/C[C@@H](C)[C@H](O)[C@@](C)(O)C(=O)[C@@H](C)[C@H](O)[C@@H](C)C(=O)[C@@H](C)[C@H](O)[C@@H](C)/C=C\\C(=O)O[C@@H]2[C@H](C)[C@H](CC1)O[C@]1(CC[C@H](C)[C@H](C[C@@H](C)O)O1)[C@H]2C", "values": [{"measurement": "Potency", "setting": "[1]", "result": "inconclusive: 10 µM [inhibitor, full curve, poor fit]"}, {"measurement": "Potency", "setting": "[2]", "result": "active: 0.742 µM"}, {"measurement": "Potency", "setting": "[4]", "result": "active: 0.332 µM"}, {"measurement": "Potency", "setting": "[9]", "result": "active: 15.8 µM"}, {"measurement": "Potency", "setting": "[10]", "result": "active: 5.78 µM"}]}, {"smiles": "C#C[C@]1(O)C=C[C@H]2[C@@H]3CCC4=CC(=O)CC[C@@H]4[C@H]3CC[C@@]21CC", "values": [{"measurement": "Potency", "setting": "[1]", "result": "inconclusive: 10 µM [inhibitor, partial curve, poor fit]"}, {"measurement": "Potency", "setting": "[2]", "result": "inconclusive: 18.8 µM [inhibitor, partial curve] and inconclusive: 14.8 µM [inhibitor, partial curve]"}, {"measurement": "Potency", "setting": "[4]", "result": "inconclusive: 29.9 µM [inhibitor, single point] and inconclusive: 18.6 µM [inhibitor, partial curve]"}]}, {"smiles": "Clc1ccc(COC(Cn2ccnc2)c2ccc(Cl)cc2Cl)cc1", "note": "(centres undefined)", "values": [{"measurement": "Potency", "setting": "[1]", "result": "inconclusive: 20 µM [inhibitor, partial curve, poor fit] and inconclusive: 39.8 µM [inhibitor, partial curve, poor fit]"}, {"measurement": "Potency", "setting": "[2]", "result": "inconclusive: 33.5 µM [inhibitor, single point] and inconclusive: 1.18 µM [inhibitor, full curve, poor fit]"}, {"measurement": "Potency", "setting": "[6]", "result": "inconclusive: 22.2 µM [inhibitor, partial curve] and inconclusive: 31.6 µM [inhibitor, partial curve]"}, {"measurement": "activation", "setting": "[11]", "result": "inconclusive: 56.7% [activator]"}]}]}
